According to article PMC4336329 (PLoS ONE, 2015):
In all, about 310,000 compounds went through this assay and about 14,000 (4.5%) showed an effect of 50% or more. Effects have a minus sign here. Some of the results follow.

Each compound was assayed against human ether-à-go-go-related gene (hERG) potassium channel (human, UniProt Q12809) (assay: primary screen, population patch clamp on CHO cells stably expressing hERG).
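Further: peak tail current of the secondary pulse compared with the same well before compound.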

Sequence of human ether-à-go-go-related gene (hERG) potassium channel (Q12809 whole entry, looked up): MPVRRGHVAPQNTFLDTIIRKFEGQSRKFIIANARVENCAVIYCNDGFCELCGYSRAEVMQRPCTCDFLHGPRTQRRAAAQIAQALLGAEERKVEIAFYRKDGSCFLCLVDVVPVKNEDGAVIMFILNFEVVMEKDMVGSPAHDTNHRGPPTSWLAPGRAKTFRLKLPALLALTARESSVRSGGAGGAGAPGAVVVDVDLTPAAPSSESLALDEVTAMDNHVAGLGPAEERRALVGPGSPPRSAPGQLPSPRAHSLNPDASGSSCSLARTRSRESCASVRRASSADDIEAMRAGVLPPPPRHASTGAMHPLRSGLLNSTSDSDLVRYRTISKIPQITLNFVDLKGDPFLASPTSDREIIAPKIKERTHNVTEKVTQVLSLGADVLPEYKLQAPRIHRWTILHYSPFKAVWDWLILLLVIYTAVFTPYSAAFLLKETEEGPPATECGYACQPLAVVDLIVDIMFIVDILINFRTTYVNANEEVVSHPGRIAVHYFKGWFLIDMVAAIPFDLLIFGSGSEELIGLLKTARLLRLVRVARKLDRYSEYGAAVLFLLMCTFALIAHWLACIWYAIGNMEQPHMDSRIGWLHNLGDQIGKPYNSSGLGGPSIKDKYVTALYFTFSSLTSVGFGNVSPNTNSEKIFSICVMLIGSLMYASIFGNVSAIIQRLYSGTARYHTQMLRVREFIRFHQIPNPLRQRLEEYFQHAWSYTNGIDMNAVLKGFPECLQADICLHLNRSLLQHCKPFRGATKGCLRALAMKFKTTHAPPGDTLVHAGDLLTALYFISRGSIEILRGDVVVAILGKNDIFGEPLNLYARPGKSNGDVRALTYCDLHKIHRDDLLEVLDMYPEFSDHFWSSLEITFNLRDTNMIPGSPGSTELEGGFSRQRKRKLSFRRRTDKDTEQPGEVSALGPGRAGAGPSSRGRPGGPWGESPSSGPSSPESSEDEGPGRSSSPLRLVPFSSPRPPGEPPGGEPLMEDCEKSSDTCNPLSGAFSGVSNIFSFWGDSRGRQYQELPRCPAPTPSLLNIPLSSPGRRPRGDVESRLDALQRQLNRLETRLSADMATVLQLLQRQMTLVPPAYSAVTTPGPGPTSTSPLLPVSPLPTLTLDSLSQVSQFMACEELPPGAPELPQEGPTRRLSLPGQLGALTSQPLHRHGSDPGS

Compound | hERG current change (%, negative = inhibition) at 10uM [%]
Cc1ccc2[nH]c(=O)c(CC(=O)O)c(-c3ccccc3)c2c1 | 17.7
COc1cccc(OCc2cc(C(=O)N3CCN(C4CCCC4)CC3)no2)c1 | -21.3
NC(=S)NC(=O)/C=C/c1ccccc1 | 13.1
C[C@H](C(=O)O)c1ccc(-c2ccccc2)c(F)c1 | 9.43
C[C@H](NC(=O)c1cc2cc(Cl)ccc2n1C)C(=O)N[C@@H](C(=O)O)c1ccccc1 | 13.4
Cc1[nH]c2ccc(C(=O)NCCN3CCOCC3)cc2c1C | 15
O=C(NC(Cc1ccccc1)C(=O)O)/C(=C/c1ccc(F)cc1)NC(=O)c1ccccc1 (stereo not shown) | 8.36
O=C(Cn1nc(-c2nn(CC(=O)c3ccccc3)c3[n+]2CCCCC3)[n+]2c1CCCCC2)c1ccccc1.[Br-] | 12.8
Cc1onc(-c2ccccc2)c1C(=O)N/N=C/C(Br)=C/c1ccccc1 | -5.21
CCOC(=O)NCc1ccc(S(=O)(=O)Nc2ccc(C)cc2)cc1 | -14.6
COc1ccc2oc(C(=O)NCC3CCCO3)c(C)c2c1 (stereo not shown) | 14.2
COc1ccc(S(=O)(=O)N2CCOCC2)cc1C(=O)Nc1cc(C)on1 | 2.19
CCC(C)[C@H](NC(=O)Nc1ccc(C)cc1C)C(=O)O (stereo partly shown) | -17.1
CCc1nc(SCC(=O)c2ccc(C)c(C)c2)n[nH]1 | 4.1
Cc1csc(NC(=O)c2nc3nc(C)cc(C)n3n2)n1 | 0.212
CNc1nn(-c2cccc(Cl)c2)nc1N | -5.64
CN(C)c1ccc(/C(=N\O)c2ccccc2)cc1 | -9.94
COc1ccc(C(=O)n2nc(-c3ccc(OC)cc3)nc2N)cc1 | -3.32
Cc1ccc(C)c(S(=O)(=O)N2CCN(C(=O)c3cccn3C)CC2)c1 | -1.44
Cc1ccc2nc(-c3ccccc3)c(CC(=O)O)c(C(=O)O)c2c1 | 18.2
O=C(O)CCN1C(=O)C2C3C=CC(C2C1=O)C1C(=O)N(CCC(=O)O)C(=O)C31 (stereo not shown) | 1.36
CC(=O)C1=C(O)C(=O)N(c2ccc(Br)cc2)C1c1ccc([N+](=O)[O-])cc1 (stereo not shown) | 7.07

Compound | hERG current change (%, negative = inhibition) at 10uM [%]
Cc1ccc(NC(=O)Cn2c([N+](=O)[O-])cnc2C)cc1Cl | 10.4
Cn1c(SCC(=O)Nc2ncc(C(F)(F)F)cc2Cl)nnc1-c1ccc(Cl)cc1 | -30.8
CCS(=O)(=O)N1CCCC(C(=O)Oc2ccc(Br)cc2)C1 (stereo not shown) | -20.6
CC1=CC(C)(C)Nc2ccc(OC(=O)CN3C(=O)CCC3=O)cc21 | 2.04
CCOc1ccc(Br)cc1CN(CC)CC.Cl | -27.4
COC(=O)c1ccc(CN2CCC(Oc3ccc(C(=O)N4CCCCC4)cc3)CC2)cc1 | -51.7
CC(=O)c1c(C)[nH]c(C(=O)NCc2ccc(C)cc2)c1C | 10.1
CCn1c(SCc2nc3ccccc3c(=O)[nH]2)nc2ccccc2c1=O | -5.61
COc1ccccc1NS(=O)(=O)c1cccc(NC(=O)CCNC(=O)c2ccccc2OC)c1 | -33.1
CCOc1ccc(NC(=O)NCCN2CCN(c3ccccc3F)CC2)cc1 | -62.3
C=CCC1(Cl)C(=O)C(Cl)=C(N2CCOCC2)C1(OC)OC (stereo not shown) | 15.1
COc1cccc(N=Cc2c(O)n(Cc3ccco3)c(=O)[nH]c2=O)c1 | 26.6
CCOC(=O)CNc1ncc(C(F)(F)F)cc1Cl | 3.07
COc1ccc(C2=NO[C@@H]3C(=O)N(C4CCCCC4)C(=O)[C@H]23)cc1OC | -17.7
CC(C)(C)c1ccc(NC(=O)c2ccc3c(c2)S(=O)(=O)c2ccccc2C3=O)cc1 | 25.5
C/C(CC(=O)Nc1ccc(Cl)cn1)=N\NC(=O)Cc1cccs1 | 4.63
COc1ccc(C)cc1N(CC(=O)N1CCCCCC1)S(=O)(=O)c1ccccc1 | -23.9
COC(=O)c1cc(CNC(=O)C(C)NS(=O)(=O)c2ccc(C)c(C)c2)ccc1OC (stereo not shown) | 21.6
CCCN(CCC)CC(O)CN1C(=O)NC(C)(C)C1=O (stereo not shown) | 26.3
COc1ccccc1NC(=S)NCCSc1ccc(Cl)cc1 | -0.291
COc1cc(C)cc(C(=O)O)c1C1=C(O)c2cccc(O)c2C(=O)C1=O | 3.59
CC1=CC(C)C2C(=O)N(O)C(=O)C2C1 (stereo not shown) | 8.36

Compound | hERG current change (%, negative = inhibition) at 10uM [%]
CC(=O)NCCC(=O)N1CCc2c([nH]c3ccccc23)C1c1cccc(Cl)c1 (stereo not shown) | -24.2
O=C(CN1CCCc2ccccc21)NCCc1ccc(F)cc1 | -17.2
COc1ccc(S(=O)(=O)N2CCCC(C(=O)NCc3ccncc3)C2)cc1Cl (stereo not shown) | -34.5
Cc1ccc(C(=O)N2CCN(C(=O)C3CCCO3)CC2)cc1 (stereo not shown) | -6.48
O=C(COC(=O)C1(c2ccccc2F)CCCC1)N1CCOCC1 | 12.6
CCOCCCNC(=O)c1ccc2c(c1)ncn2-c1ccc(CC)cc1 | -43.8
CSCCC(NC(=O)c1ccccc1)C(=O)NCCc1ccccc1 (stereo not shown) | -16.1
O=C1CC(c2cccc(F)c2)C2=C(CCCC2=O)N1 (stereo not shown) | 4.51
COc1cc2nc(CN(C)Cc3ccc(Cl)cc3)[nH]c(=O)c2cc1OC | 13.6
O=C(NCc1nnc(SCC(=O)N2CCC(Cc3ccccc3)CC2)o1)c1ccccc1F | -23.8
CC(C)C(Sc1nc(-c2ccccc2)cc(-c2ccccc2)c1C#N)C(=O)O (stereo not shown) | 15.8
CN(CCOc1ccc(Br)cc1)C(=O)CNC(=O)c1ccc2ccccc2c1 | -1.47
CCOc1ccc(/C=N/Nc2ccc(Cl)nn2)c(O)c1 | 20.1
COCCNC(=O)c1nn(-c2cc(OC)cc(OC)c2)c(=O)c2ccccc12 | 2.23
O=C(c1ccccn1)N(c1ccccc1)C1(C(=O)NC2CCCCC2)CCCCC1 | -5.99
COc1cc2ncnc(NCCc3ccccc3)c2cc1OC | -15.5
CCOC(=O)C1=C(CSc2nccn2C)NC(=O)NC1c1ccc(OC)cc1 (stereo not shown) | -9.09
CC(=O)N1CCN(C(=O)CSc2nnc(C)n2-c2ccccc2)CC1 | 12.4
O=C(CN1C(=O)NC2(CCc3ccccc32)C1=O)Nc1cccc(F)c1 (stereo not shown) | -6.96
COc1ccc(NCc2nnc(-c3ccccc3)o2)cc1 | 1.25
CC(C)c1ccc(NNC(=O)C2CCC2)cc1 | 3.84
COCCNC(=O)C(C)Oc1ccc(Cl)cc1Cl (stereo not shown) | -6.13

Compound | hERG current change (%, negative = inhibition) at 10uM [%]
COc1ccc(C(CNC(=O)COc2ccc(C)c(C)c2)N2CCCCC2)cc1 (stereo not shown) | -38.6
N=C1C(c2ccccc2)=C(O)CN1CCCO | 14.5
COc1ccc2cc(-c3cc(C(=O)O)c4ccccc4n3)ccc2c1 | 4.97
O=C1[C@H]2[C@H](ON3CCCC[C@H]23)C(=O)N1c1cccc(C(F)(F)F)c1 | 12.3
N#CC(C(=O)C1CCCCC1)c1nc2ccccc2[nH]1 (stereo not shown) | -5.05
Cc1c(C)c2ccc(OCC(=O)N3CCN(C(=O)C4COc5ccccc5O4)CC3)cc2oc1=O (stereo not shown) | -60.9
Cc1nn(C)cc1C(C(=O)NC1CCCCC1)N(Cc1ccccc1Cl)C(=O)c1cnccn1 (stereo not shown) | -5.97
Cc1ccc(CN2CCN(/N=C/c3cc(Br)ccc3F)CC2)cc1 | 21.8
COc1cccc(CNC(=O)c2csc3c2CCCC3)c1 | -6.85
N#Cc1c(Cl)cccc1N1CCCC1 | -9.9
C/C(=N/NC(=O)CCc1ccccc1)c1ccc2c(c1)OCO2 | 17.9
Cc1cccc(N2C(=O)C(O)=C(C(=O)c3cccs3)C2c2ccc(Cl)cc2)n1 (stereo not shown) | 0.613
CSCCC1NC(=O)N(CC(=O)Nc2cc(C)on2)C1=O (stereo not shown) | 6.58
CCOC(=O)c1ccc(CN(Cc2ccccc2)S(=O)(=O)c2cccc([N+](=O)[O-])c2)cc1 | 18.7
COc1cccc(NC(=O)CN(C)C(=O)/C=C/c2ccc3ccccc3n2)c1 | 5.08
O=c1c2ccccc2nc(CSc2nnnn2-c2ccccc2)n1-c1cccc(C(F)(F)F)c1 | 4.15
CC(=O)N/C(=C/c1ccc2c(c1)OCO2)C(=O)NCc1ccccc1 | 18.7
CCOc1ccc(-c2nn(-c3ccccc3)cc2/C=C(\C#N)S(=O)(=O)c2ccccc2)cc1C | 8.69
Nc1cc(=O)nc(SCC(=O)Nc2ccccc2)n1-c1ccccc1 | 25.5
COC(=O)CCC(=O)N1CCc2cc(S(=O)(=O)N3CCc4ccccc43)ccc21 | -8.24
COc1cccc(C(C(=O)NCC2CCCO2)N(CC2CCCO2)C(=O)CN2C(=O)c3ccccc3S2(=O)=O)c1 (stereo not shown) | 19.1
CCc1ncc(CN2CCCC(C(=O)Nc3cccc(-c4cccc(C)c4)c3)C2)cn1 (stereo not shown) | -48.8
